Test results reported in PubChem BioAssay AID652106 (National Center for Advancing Translational Sciences (NCATS), 2013).
The campaign covered roughly 370,000 compounds. About 500 (0.14%) were called active. The shares of active, inactive and inconclusive entries below differ from those in the screen. The call rests on the fitted dose curve; in most records, active means well fitted activation curve with a large enough effect; inconclusive means small, poorly fitted or top-dose-only effect; inactive means no such curve, though single readings can be large or run the other way. No potency is given beside an inconclusive call; the fits are too rough.

test: qHTS of alpha-syn Inhibitors; conditions: Yeast expressing alpha-synuclein, BacTiter-Glo, 24 h; Potency: growth rescue unless noted; growth rescue (activation): at 46.1 µM (top of the series) unless noted; further: nearly all actives have a fitted effect of over 65% in size; on growth rescue (activation): % of control where 0% means no effect
Procedure, shortened: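 Galactose-induced alpha-syn yeast (OD600=0.02, raffinose-pregrown) + pinned cpd, 24 hr, 30 deg C; growth by BacTiter-Glo luminescence. Growth restoration scores as activation.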
Potency means the concentration at half of the fitted maximal effect; tags describe the fitted curve by direction and shape.

| SMILES | Potency | growth rescue (activation) |
| --- | --- | --- |
| Cn1cnc2ncnn2c1=S | inconclusive [activator, single point] | – |
| CCCCNC(=O)c1ccc(NC(=O)CC2SC(N3CCCC3)=NC2=O)cc1 (stereo not drawn) | inconclusive [activator, single point] | – |
| O=C(Cc1ccccc1)NCC(=O)N1CCC1 | inconclusive [activator, single point] | – |
| O=C1CCC(OCc2ccccc2)CCN1CC[C@@H](Sc1ccccc1)c1ccccc1 (stereo partly drawn) | inconclusive [activator, partial curve] | – |
| O=C(NCc1ccncc1)c1ccccc1Nc1ccc(SC(F)F)cc1 | inactive | – |
| Cc1ccccc1OCC(=O)Nc1ccc(N2CCN(C)CC2)c(Cl)c1 | inconclusive [activator, single point] | – |
| Cc1ccc(OCCNC(=O)C(=O)NCc2ccco2)cc1 | inactive | – |
| O=S(=O)(NCc1ccccc1)NCc1ccc(Cl)cc1Cl | inconclusive [activator, single point] | – |
| Cc1ccc(-n2nc3c(=O)n(CCCC(=O)NCC(C)c4ccccc4)nc(C)c3c2C)cc1 (stereo not drawn) | inactive | – |
| COc1ccc(-c2coc3c(C(=O)Nc4ccc(OC)nc4)cccc23)c(C)c1 | inactive | – |
| O=C(CCCSc1nnc(Nc2ccccc2F)s1)N1CCOCC1 | inactive | – |
| CCOC(=O)c1noc2ncn(CC(=O)Nc3cccc(C(F)(F)F)c3)c(=O)c12 | inactive | – |
| COc1cc(OC)nc(Nc2nc(C(N)c3ccccc3)cs2)n1 (stereo not drawn) | inconclusive [activator, single point] | – |
| COc1ccc2sc(-c3ccc(SC)cc3)c(-c3ccc(O)cc3)c2c1 | inactive | – |
| S=C(Nc1ccccc1Cl)N1CCC(c2ccccc2)C1 (stereo not drawn) | inconclusive [activator, single point] | – |
| COc1ccc(C(O)P(=O)(O)CCc2ccccc2)cc1 (stereo not drawn) | inactive | – |
| COc1ccc(C(=O)N2CCN(C3CCN(Cc4ccccc4)CC3)CC2)cc1OC | inactive | – |
| Cc1nc(CSc2nnc3scc(-c4ccccc4)n23)cs1 | inconclusive [activator, single point] | – |
| C[C@@H]1CN([C@@H](C)CO)C(=O)CCCn2nncc2CO[C@H]1CN(C)Cc1ccc(C(F)(F)F)cc1 | inconclusive [activator, single point] | – |
| Cc1ccc(CNCc2ccccc2Cl)s1 | inactive | – |
| Cn1c(-c2ccccc2F)cc2onc(-c3ccccc3)c2c1=O | inactive | – |
| Cn1c(=O)c2nc(-c3ccccc3)oc2c2ccccc21 | inconclusive [activator, single point] | – |
| Cc1cc(C)nc(Sc2ncnc3sc4c(c23)CCC4)n1 | inactive | – |
| Cc1ccc(C)c(N2CCN(S(=O)(=O)c3ccc4c(c3)C(C(C)C)C(=O)N4)CC2)c1 (stereo not drawn) | inconclusive [activator, single point] | – |
| O=C1C(Cc2ccccc2)Nc2ncnc(N3CCCCC3)c2N1Cc1ccc(Br)cc1 (stereo not drawn) | – | inconclusive: 34.9% [activator] |

| SMILES | Potency | growth rescue (activation) |
| --- | --- | --- |
| CCN(CC)S(=O)(=O)c1ccc(OC)c(NC(=O)C2CC(=O)N(c3ccc4c(c3)OCCO4)C2)c1 (stereo not drawn) | inactive | – |
| COc1cc2cnc(-c3ccccc3)c(C(=O)c3ccc(F)cc3)c2cc1OC | – | inconclusive: -54.3% [activator] |
| CN(CCNC(=O)c1cc2c(=O)n(C)c3ccccc3c2n1C)Cc1ccccc1 | inconclusive [activator, single point] | – |
| COc1ccc(CNC(C)C2COc3ccccc3O2)c(OC)c1 (stereo not drawn) | inactive | – |
| COc1ccc([C@H]2/C=C\CN(C(=O)CC(C)(C)C)[C@@H](C)C(=O)N2Cc2ccc(F)cc2)cc1 | inactive | – |
| COc1ccc(-c2nc3ccccc3s2)cc1NC(=O)c1ccccc1F | inconclusive [activator, single point] | – |
| Clc1ccc(/C=N\Nc2ccccc2)cc1 | inactive | – |
| CCc1ccc(NC2CC(=O)N(c3ccc(OC)cc3OC)C2=O)cc1 (stereo not drawn) | inactive | – |
| Cc1cccc(OCC(=O)N(Cc2ccccc2)c2c(N)n(Cc3ccccc3)c(=O)[nH]c2=O)c1 | inactive | – |
| CCOC(=O)C(=CNNc1ccccc1)C(=O)OCC | inconclusive [activator, single point] | – |
| O=C(O)CC(c1ccccc1)c1ccc2c(c1)OCO2 (stereo not drawn) | inconclusive [activator, single point] | – |
| CCCCOc1ccc(C2OC34CCCCC3C(C#N)(C#N)C2(C#N)C(=N)O4)cc1 (stereo not drawn) | inactive | – |
| Cc1cccc(C(=O)OCC(=O)Nc2nnc(-c3ccccc3)o2)c1O | inconclusive [activator, partial curve] | – |
| O=C(CC(=O)c1ccccc1O)c1cccc(F)c1 | active: 12.6 µM | – |
| CC(C)NC(=O)c1cc(C2CCCCN2S(=O)(=O)c2cccs2)on1 (stereo not drawn) | inconclusive [activator, single point] | – |
| O=C1CC(c2ccccc2)CC2=C1C(c1ccco1)n1nc(C(F)(F)F)nc1N2 (stereo not drawn) | inconclusive [activator, single point] | – |
| CCc1nc(Nc2ccncc2)c2oc3ccccc3c2n1 | inactive | – |
| Cc1ccc2nsnc2c1S(=O)(=O)N1CCOCC1 | inconclusive [activator, single point] | – |
| N#Cc1nc(-c2ccccc2F)oc1NCCN1CCOCC1 | inconclusive [activator, single point] | – |
| O=C(NC1CCc2ccccc21)c1cc(COc2cncc(Cl)c2)on1 (stereo not drawn) | inactive | – |
| CN1CCN(CC(=O)Nc2ccccc2Oc2ccccc2)CC1 | inactive | – |
| CCCN(CC(=O)NC(=O)NC1CCCCC1)CC(=O)Nc1cc(Cl)ccc1Cl | inconclusive [activator, single point] | – |
| CSc1nnc(C)c(=O)n1COC(=O)COc1ccc2ccccc2c1 | inconclusive [activator, single point] | – |
| Cc1noc(C)c1C(=O)N1CCC1(C)C(=O)NS(=O)(=O)c1cccs1 (stereo not drawn) | inconclusive [activator, single point] | – |
| Cc1ccc(C)c(NC(=O)CCN2C(=O)c3ccccc3C2=O)c1 | inconclusive [activator, single point] | – |

| SMILES | Potency | growth rescue (activation) |
| --- | --- | --- |
| O=C(NC(CC(=O)N1CCN(c2ccc([N+](=O)[O-])cc2)CC1)c1ccccc1)c1ccccc1Cl (stereo not drawn) | inconclusive [activator, single point] | – |
| CC(C)CC1C(=O)N(Cc2cn(CCC3OCCO3)nn2)CCS(=O)(=O)N1Cc1ccc(-c2ccc(Cl)c(Cl)c2)cc1 (stereo not drawn) | inconclusive [activator, single point] | – |
| COc1ccc(N2CCN(S(=O)(=O)c3ccc(OC)c(-c4noc(C)n4)c3)CC2)cc1 | inconclusive [activator, single point] | – |
| COc1ccccc1-c1cn[nH]c1-c1ccc(OCc2ccccc2)cc1O | inconclusive [activator, single point] | – |
| CCOC(=O)Cc1csc(NC(NC(=O)OCC)(C(F)(F)F)C(F)(F)F)n1 | inconclusive [activator, single point] | – |
| CCC(CC)C(=O)N(C)c1c(C)nc2c(OCc3ccc(Cl)cc3Cl)cccn12 | inconclusive [activator, single point] | – |
| CCc1ccc(NC(=O)CSc2nccn2-c2cccc(C)c2C)cc1 | inconclusive [activator, single point] | – |
| O=c1cc(-c2ccccc2)n(S(=O)(=O)c2ccccc2)o1 | inconclusive [activator, single point] | – |
| COc1ccc(C(O)c2nc(-c3cnc4ccccc4c3)cs2)cc1 (stereo not drawn) | inconclusive [activator, full curve, poor fit] | – |
| Cc1nc(C/C(=N\N)c2ccc(O)cc2O)cs1 | inactive | – |
| COc1ccc(CNC(=O)C2(C)Cc3c(-c4ccc5c(c4)OCO5)ccnc3O2)cc1OC (stereo not drawn) | active: 8.91 µM | – |
| COc1cc2nc(N3CCCN(C)CC3)nc(NC3CCN(C)CC3)c2cc1OC | inactive | – |
| CNC(=O)c1csc(-c2ccc(Cl)cc2)n1 | inconclusive [activator, single point] | – |
| CC(=O)c1ccc(Nc2nc(CN)cs2)cc1 | inconclusive [activator, single point] | – |
| CSc1nc(C)nc2c1c(=O)n(C)c(=O)n2C | inconclusive [activator, single point] | – |
| CC(=O)C(C(c1ccccc1)c1c[nH]c2ccccc12)[N+](=O)[O-] (stereo not drawn) | inconclusive [activator, single point] | – |
| COc1ccc2cc([C@H](C)C(=O)N(C)Cc3ccccc3N3CCCC3)ccc2c1 | inconclusive [activator, single point] | – |
| O=C(C1CCN(c2nc(-c3ccccc3)nc3c2CCC3)CC1)N1CCCC1 | inconclusive [activator, single point] | – |
| CN(Cc1ccccc1)C(=O)C1CCC(CNS(=O)(=O)c2cccc3cccnc23)CC1 (stereo not drawn) | inconclusive [activator, single point] | – |
| Cn1c2c(c3cnc4cc(Cl)ccc4c31)CNCC2 | inconclusive [activator, single point] | – |
| CSc1ccc(Cn2c(C)c(C(=O)NCc3ccc4c(c3)OCO4)sc2=O)cc1 | inactive | – |
| COc1cccc(CN(C)C(=O)c2cc(COc3ccc(-n4cncn4)cc3)on2)c1 | inconclusive [activator, single point] | – |
| CCOc1ccc(CCNC(=O)CCc2nc(-c3ccc(C)cc3)no2)cc1OCC | inactive | – |
